Laboratory results as given in paper PMC4336329 (PLoS ONE, 2015).
About 2,200 (0.71%) of roughly 310,000 compounds showed an effect of 50% or more. Effects have a minus sign here. The list shows a part of the results.

What follows are compounds tested against human ether-à-go-go-related gene (hERG) potassium channel (human, UniProt Q12809) (assay: primary screen, population patch clamp on CHO cells stably expressing hERG).
human ether-à-go-go-related gene (hERG) potassium channel, sequence (Q12809 whole entry, looked up): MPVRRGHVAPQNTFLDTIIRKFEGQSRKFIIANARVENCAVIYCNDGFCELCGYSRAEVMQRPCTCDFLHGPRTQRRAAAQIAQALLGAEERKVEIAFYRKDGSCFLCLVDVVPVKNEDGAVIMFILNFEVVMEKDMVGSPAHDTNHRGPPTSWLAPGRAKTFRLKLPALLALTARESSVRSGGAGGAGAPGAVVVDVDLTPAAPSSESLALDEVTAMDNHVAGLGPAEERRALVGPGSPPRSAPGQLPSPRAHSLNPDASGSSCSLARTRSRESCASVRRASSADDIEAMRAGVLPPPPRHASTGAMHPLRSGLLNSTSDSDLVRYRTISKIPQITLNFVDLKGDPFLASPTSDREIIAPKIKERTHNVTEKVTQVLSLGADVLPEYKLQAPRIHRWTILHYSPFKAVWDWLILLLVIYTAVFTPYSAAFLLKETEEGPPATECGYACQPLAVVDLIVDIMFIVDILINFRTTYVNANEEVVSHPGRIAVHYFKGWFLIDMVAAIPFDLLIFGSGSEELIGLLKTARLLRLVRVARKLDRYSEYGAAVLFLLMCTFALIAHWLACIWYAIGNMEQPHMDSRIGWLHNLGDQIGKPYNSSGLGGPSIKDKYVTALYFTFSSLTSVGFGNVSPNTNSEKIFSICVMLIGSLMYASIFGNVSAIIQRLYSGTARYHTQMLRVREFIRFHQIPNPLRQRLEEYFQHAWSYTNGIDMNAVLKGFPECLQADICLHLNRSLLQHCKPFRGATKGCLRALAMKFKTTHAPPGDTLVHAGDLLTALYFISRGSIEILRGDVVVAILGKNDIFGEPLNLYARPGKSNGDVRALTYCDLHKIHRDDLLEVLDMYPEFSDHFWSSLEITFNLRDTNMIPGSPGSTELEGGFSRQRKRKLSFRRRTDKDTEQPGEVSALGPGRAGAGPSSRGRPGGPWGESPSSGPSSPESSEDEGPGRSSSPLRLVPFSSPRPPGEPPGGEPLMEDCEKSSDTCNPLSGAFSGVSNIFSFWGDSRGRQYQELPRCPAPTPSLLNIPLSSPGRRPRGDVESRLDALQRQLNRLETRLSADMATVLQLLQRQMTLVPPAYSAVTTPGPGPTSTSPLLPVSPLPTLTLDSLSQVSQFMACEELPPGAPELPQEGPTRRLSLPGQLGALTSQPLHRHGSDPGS

Structure (SMILES) | hERG current change (%, negative = inhibition) at 1uM
CCc1noc(C)c1C(=O)NCCc1c[nH]c2ccccc12 | 7.87%
O=C(NCc1ccccc1)C(c1ccc(F)cc1)N(C(=O)c1csnn1)C1CCCC1 (stereo not shown) | 7.93%
COc1ccc(C(=O)C2CCCN(C(=O)c3cnsn3)C2)c(C)c1 (stereo not shown) | 10.4%
COc1cc(C(=O)NCc2ccc(C)cc2)ccc1OC(F)F | 2.75%
O=C(CNS(=O)(=O)c1ccccc1F)Nc1ccc(N2CCOCC2)cc1 | -0.205%
CC1(C(=O)Nc2nc3ccccc3s2)CC1(Br)Br (stereo not shown) | 12.2%
Cc1cc(Nc2cccc(Cl)c2)nc(N2CCOCC2)n1 | 10.9%
Cc1ccc(OC(=O)CCC(=O)Nc2ccc(C(N)=O)cc2)cc1 | 15.5%
COCC(C)NC(=O)NC1(C(F)(F)F)Oc2ccc(Cl)cc2O1 (stereo not shown) | 13.6%
CC(=O)NC1C(=O)N=C(SCC(=O)Nc2c(C)cccc2C)NC1=O (stereo not shown) | 6.15%
Nc1cc(-c2ccccc2)nn1S(=O)(=O)c1ccc(Br)cc1 | 14.8%
COc1ccc(NC(=O)C2CCC(CNc3c(N4CCOCC4)c(=O)c3=O)CC2)cc1Cl (stereo not shown) | 27.6%
C/C(CC(c1ccccc1)c1c(O)c2ccccc2oc1=O)=N\NC(N)=S (stereo not shown) | 8.07%
O=S(=O)(c1ccc(Cl)cc1)N1CCN(Cc2ccc(O)c3ncccc23)CC1 | 3.27%
Cc1ccc(CCC(=O)Nc2ccc(N(C)C)cc2)o1 | 4%
CCOc1ccc(NC(=O)CSc2nnc(Cn3cnc4ccccc43)n2C)cc1 | -3.91%
O=C(NCCCn1ccnc1)c1nn2c(C(F)(F)F)cc(-c3ccccc3)nc2c1Cl | 0.542%
O=C(Cc1c(F)c(F)c(F)c(F)c1F)Nc1nc(-c2ccccc2)cs1 | 9.84%
O=C1NC(=O)C(CCc2ccncc2)(Cc2ccc3c(c2)OCO3)C(=O)N1CCc1ccccc1 (stereo not shown) | -10.8%
COc1ccc(NC(=S)N2CCN(c3ncccn3)CC2)cc1 | 17.7%
Clc1ccc(CNCc2cccs2)cc1Cl | 19.2%
CCCCN(C(=O)/C=C/c1ccc(OCC(C)C)c(OCC)c1)c1c(N)n(CCC)c(=O)[nH]c1=O | 6.21%
O=C(CSc1nc2ccccc2n1-c1ccccc1)NCC1CCCO1 (stereo not shown) | -5.93%
Cc1occc1C(=O)NNC(=S)Nc1ccccc1C(F)(F)F | 12.2%
COC(=O)c1c(NC(=O)CN2C(=O)NC3(CCc4ccccc4C3)C2=O)sc2c1CCCCC2 (stereo not shown) | 13.3%
CC(C)(C)c1ccc(Oc2ccc(NC(=O)CCCC(=O)O)cn2)cc1 | 15.4%
CN1CCN(CCCNCc2cn(CCC#N)c3ccccc23)CC1.O=C(O)C(=O)O | 7.34%
O=C(COC(=O)/C=C/c1ccc(F)cc1)Nc1ccc2[nH]c(=O)[nH]c2c1 | 12.9%

Structure (SMILES) | hERG current change (%, negative = inhibition) at 1uM
CCCCCn1nc(C(=O)N2CCc3ccccc32)c2ccccc2c1=O | 7.31%
O=[N+]([O-])c1ccc(N2CCN(Cc3ccc(Br)o3)CC2)cc1 | -32.6%
CCOc1cc(C=C2C(=O)NC(=O)NC2=O)cc([N+](=O)[O-])c1O | 17.4%
Cc1cccc(NC(=S)N/N=C/c2cccc(O)c2)c1C | 16.6%
COc1ccc2[nH]c(C)c(CCN(Cc3cccs3)C(=S)Nc3ccccc3)c2c1 | 6.37%
O[C@H]1COC2C1OC[C@@H]2O (stereo partly shown) | 2.29%
C=CCn1c(NC(=O)c2ccccc2)nc2ccccc21 | 14.9%
O=C(N/N=C/c1ccccc1C(F)(F)F)c1ccc2nc[nH]c2c1 | 21.1%
O=C(NCc1ccccc1)C(c1c(F)cccc1Cl)N(C(=O)c1csnn1)C1CC1 (stereo not shown) | 10.9%
COc1ccc(-n2nc(C(=O)NCC(=O)Nc3cccc(Cl)c3)c3ccccc3c2=O)cc1OC | 10.4%
C=CCn1c(C)cc(C2=NNC(=NCC)SC2)c1C.Cl | 5.71%
Cc1ccc(-n2c(O)c(C=NCc3cccnc3)c(=O)[nH]c2=O)cc1C | 8.61%
CCOC(=O)C1=C(C)Nc2ccccc2N=C1NC(=O)c1ccc(Cl)c(S(=O)(=O)N2CCCC2)c1 | 3.92%
C/C(=C\C(=O)c1ccc(Br)cc1)NCc1ccc2c(c1)OCO2 | 5.64%
C/C(=N/NC(=O)CCC(=O)Nc1ccc(Br)cc1)c1ccc(Br)cc1 | 5.74%
COc1cccc(NC(=O)CN(C)C(=O)c2ccc3ccccc3c2)c1 | 5.88%
COc1ccc(Cc2n[nH]c(=S)n2NC(=O)Nc2ccc(Cl)c(Cl)c2)cc1 | 10.2%
CC(=O)C1=C(O)C(=O)OC1c1ccc(C)cc1 (stereo not shown) | 22.7%
C/C(Cn1nc([N+](=O)[O-])cc1C)=N\NC(=O)COc1ccc(Cl)cc1Cl | -51.3%
COc1ccc(S(=O)(=O)N2CCC(C(=O)NCc3ccccn3)CC2)cc1OC | 1.82%
COc1ccc(S(=O)(=O)NCc2ccccn2)cc1NC(=O)c1ccccc1 | 14.8%
O=C(CCN1C(=O)/C(=C\C=C\c2ccccc2)SC1=S)Nc1ccccc1C(=O)O | -2.02%
CCCn1c(SCC(=O)Nc2cc(Cl)ccc2OC)nc(O)cc1=O | 3.88%
Nc1cc(-c2ccccc2)nn1S(=O)(=O)c1ccc(F)cc1 | 8.6%
CN(C)c1nnnn1-c1ccc(Cl)cc1 | 4.98%
COc1ccc2c(c1)[nH]c1c(N3CCSCC3)ncnc12 | 6.58%
COc1cccc(/C=N/NC(=O)C(=O)N/N=C/c2cccc(OC)c2OC)c1OC | 8.07%
